Among all 310,000 compounds or so, about 2,200 (0.71%) showed an effect of 50% or more. Effects have a minus sign here. This is one part of the list.

The target of the assay is human ether-à-go-go-related gene (hERG) potassium channel (human, UniProt Q12809). Briefly: primary screen, population patch clamp on CHO cells stably expressing hERG.
Chain of human ether-à-go-go-related gene (hERG) potassium channel (Q12809 whole entry, looked up): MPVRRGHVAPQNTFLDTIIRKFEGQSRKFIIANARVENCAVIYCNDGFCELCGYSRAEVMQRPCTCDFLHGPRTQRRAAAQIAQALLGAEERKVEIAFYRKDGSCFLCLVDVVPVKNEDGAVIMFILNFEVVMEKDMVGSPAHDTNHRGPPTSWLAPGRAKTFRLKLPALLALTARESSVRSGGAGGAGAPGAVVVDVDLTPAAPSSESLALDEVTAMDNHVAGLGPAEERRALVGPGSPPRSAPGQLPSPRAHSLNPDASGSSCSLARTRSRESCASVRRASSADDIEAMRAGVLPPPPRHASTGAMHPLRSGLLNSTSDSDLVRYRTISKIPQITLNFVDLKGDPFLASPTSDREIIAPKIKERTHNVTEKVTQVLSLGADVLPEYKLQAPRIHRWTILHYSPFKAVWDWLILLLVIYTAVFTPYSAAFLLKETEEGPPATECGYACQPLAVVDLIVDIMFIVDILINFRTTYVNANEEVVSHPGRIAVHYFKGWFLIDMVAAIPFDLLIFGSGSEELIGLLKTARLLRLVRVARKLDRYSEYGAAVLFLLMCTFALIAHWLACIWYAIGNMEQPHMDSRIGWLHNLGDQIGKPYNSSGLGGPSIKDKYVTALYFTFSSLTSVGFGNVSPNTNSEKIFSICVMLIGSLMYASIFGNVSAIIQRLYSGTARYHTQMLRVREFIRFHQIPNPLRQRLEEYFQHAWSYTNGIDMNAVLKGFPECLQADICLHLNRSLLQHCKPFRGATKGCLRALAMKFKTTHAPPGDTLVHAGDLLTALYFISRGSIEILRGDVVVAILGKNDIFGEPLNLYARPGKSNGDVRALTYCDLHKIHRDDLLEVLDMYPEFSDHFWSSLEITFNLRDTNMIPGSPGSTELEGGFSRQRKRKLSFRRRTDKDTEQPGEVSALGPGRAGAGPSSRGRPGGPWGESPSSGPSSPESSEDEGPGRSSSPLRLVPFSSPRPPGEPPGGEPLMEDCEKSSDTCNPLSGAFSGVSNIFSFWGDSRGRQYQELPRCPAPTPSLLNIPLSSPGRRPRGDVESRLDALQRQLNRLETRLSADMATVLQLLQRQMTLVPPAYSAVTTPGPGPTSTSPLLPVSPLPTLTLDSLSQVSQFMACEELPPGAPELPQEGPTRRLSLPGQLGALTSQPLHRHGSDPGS
Take `CSc1ccc(CN2CCN(c3ccccc3C)CC2)cc1.O=C(O)C(=O)O`: the “hERG current change (%, negative = inhibition) at 1uM” value is 6.25%.

For `O=C(Nc1cc2c(cc1Cl)OCCCO2)c1ccco1`, the “hERG current change (%, negative = inhibition) at 1uM” value is on record as 6.47%. With `O=C(CNc1ccccc1Cl)Nc1cc(S(=O)(=O)N2CCOCC2)ccc1Cl`, the “hERG current change (%, negative = inhibition) at 1uM” value is given as 12.6%.

For `COC(=O)C1=C(CSc2nc3c(cc2C#N)CN(C)CC3)OC(N)=C(C#N)C1c1ccccc1F` (centres unmarked), the “hERG current change (%, negative = inhibition) at 1uM” value was -18%. The figure for `CN(C)c1ccc(NC(=O)c2cc3c(=O)n4ccccc4nc3n2C)cc1` is 8.06%.

As for `O=C(COc1ccc(Cl)cc1)N1CCCC1`, the “hERG current change (%, negative = inhibition) at 1uM” value is given as 1.2%. Next, `C=CCNC(=S)N1CC2(C)CN(C(=S)NCC=C)CC(C)(C1)C2=O`: 18.8%; `Cc1nnc(NC(=O)c2ccc3c(c2)NC(=O)CS3)s1`: 7.12%.

Take `CCOC(=O)Cc1csc(NC(=O)CN2CCN(c3ccccc3)CC2)n1`: the “hERG current change (%, negative = inhibition) at 1uM” value amounted to 24.6%. `COCCn1nnnc1C(c1cccc(C(F)(F)F)c1)N1CCOCC1.Cl` (centres unmarked): the “hERG current change (%, negative = inhibition) at 1uM” value was determined as 19.8%. The figure for `COc1ccc(C(=O)NC(=S)N2CCNC(=O)C2)cc1Br` is 9.03%; for `COc1ccccc1NC(=O)N(Cc1ccco1)Cc1cc2cc(C)cc(C)c2[nH]c1=O` it is 5.31%. The figure for `O=C(NCc1ccccc1F)C1CCN(C(=O)NCc2ccccc2)CC1` is 2.13%. Turning to `Cn1cc(S(=O)(=O)NCc2ccc(F)cc2)c(=O)n(C)c1=O`, the “hERG current change (%, negative = inhibition) at 1uM” value amounted to 13.8%. The figure for `O=C(O)/C=C/C(=O)NCc1cn(-c2ccccc2)nc1-c1cccc(Br)c1` is 8.61%; for `CCOC(=O)c1c(-c2ccc(C)o2)csc1NC(=O)CSc1ncn[nH]1` it is 13.4%; for `COc1cccc(-c2cc(C(=O)O)no2)c1` it is -0.258%.

With `CC(=O)c1ccc(NC(=S)N(Cc2ccccc2)C(C)C2CC2)cc1` (centres unmarked), the “hERG current change (%, negative = inhibition) at 1uM” value is 14.5%.

For the compound `CC(C)c1ccc(N(CC(=O)NCC2CCCO2)C(=O)Cn2nnc(-c3cccs3)n2)cc1` (centres unmarked), the “hERG current change (%, negative = inhibition) at 1uM” value was -8.22%.

Regarding `CC(NC(=O)CN1C(=O)NC(C)(c2cccc3ccccc23)C1=O)c1ccccc1` (centres unmarked), the “hERG current change (%, negative = inhibition) at 1uM” value stood at 8.49%. The figure for `CC(O)c1nc2ccccc2n1Cc1ccc([N+](=O)[O-])cc1` (centres unmarked) is -18.8%; for `CN(C)c1cc[n+](Cc2c(Cl)cccc2Cl)cc1.[Cl-]` it is 13.9%; for `O=C(/C=C/c1cc(Br)ccc1F)OCC(=O)N1CCCC1` it is 9.59%.

Consider `Cc1ccc(NC(=O)CN2CCN(C(=O)C3CCCO3)CC2)c(C)c1` (centres unmarked), for which the “hERG current change (%, negative = inhibition) at 1uM” value is reported as -6.85%. Consider `CCOc1ccc(N(CC(=O)NC2CCCCC2C)S(=O)(=O)c2c(C)noc2C)cc1` (centres unmarked), for which the “hERG current change (%, negative = inhibition) at 1uM” value is 17.2%. Next, `O=C(Nc1cccc(Cl)c1)c1ccc2c(c1)OCCO2`: 2.9%.

Regarding `Cc1ccnc(N2CCCC(C(=O)NCc3cccs3)C2)n1` (centres unmarked), the “hERG current change (%, negative = inhibition) at 1uM” value was determined as 2.17%.

Take `CC(c1ccccc1)[n+]1ccccc1.[O-][Cl+3]([O-])([O-])[O-]` (centres unmarked): the “hERG current change (%, negative = inhibition) at 1uM” value is recorded as 11.3%. Take `COc1cccc(/C=c2/s/c(=C(\C#N)C(=O)N3CCOCC3)n(-c3ccccc3)c2=O)c1`: the “hERG current change (%, negative = inhibition) at 1uM” value came out at 14.9%. Regarding `CCN(CCn1cccn1)C(=O)c1ccc2nc(Cc3ccc(OC)cc3)oc2c1`, the “hERG current change (%, negative = inhibition) at 1uM” value is reported as -4.61%. For `COc1cccc(-n2c(Cc3cc(=O)[nH]c(=O)[nH]3)nnc2SC(C)C)c1`, the “hERG current change (%, negative = inhibition) at 1uM” value was 2.56%. `O=C(O)/C(=C\c1ccc(Cl)c([N+](=O)[O-])c1)c1ccc(S(=O)(=O)N2CCCCC2)s1`: the “hERG current change (%, negative = inhibition) at 1uM” value was -3.2%. The figure for `NC(=O)CNC(=O)[C@@H]1CC2(CC(c3ccc(Cl)cc3)=NO2)CN1C(=O)c1ccc(Br)cc1` (some centres unmarked) is 9.7%; for `CC(=O)Oc1ccc2c(c1)C(=O)c1ccccc1CO2` it is 3.72%. In the case of `CCCOc1cccc(C2/C(=C(/O)c3ccc4c(c3)CC(C)O4)C(=O)C(=O)N2CCN2CCOCC2)c1` (centres unmarked), the “hERG current change (%, negative = inhibition) at 1uM” value came out at 9.29%. Next, `Cc1cc(C)cc(NC(=S)N2CCC(NC(=O)c3ccccc3C)CC2)c1`: 5.12%; `COc1ccccc1Oc1ccc(S(=O)(=O)Nc2cccnc2)cc1`: 15.7%; `Clc1ccccc1CN1CCN(c2ccccc2Cl)CC1`: 14.5%. As to `CCOc1ccc(S(=O)(=O)N(C)c2ccc(OCC(=O)NC3=NCCS3)cc2)cc1`, the “hERG current change (%, negative = inhibition) at 1uM” value is reported as 4.35%. Regarding `O=C(O)/C=C\C(=O)Nc1cccc(NC(=O)c2ccccc2)c1`, the “hERG current change (%, negative = inhibition) at 1uM” value was 20.2%. Next, `CCN(Cc1ccccc1)C(=O)CCS(=O)(=O)c1ccc2c(c1)oc(=O)n2C`: 9.41%; `CC(=O)NC(CC(=O)OCC(=O)c1ccc(NC(=O)CC(C)C)cc1)c1ccccc1` (centres unmarked): -13.9%.

For the compound `COc1cccc(CC(=O)OC(C)C(=O)NCc2ccc3c(c2)OCO3)c1` (centres unmarked), the “hERG current change (%, negative = inhibition) at 1uM” value was determined as 2.03%.

Consider `COc1ccccc1N(CC(O)COc1ccccc1C)S(=O)(=O)c1ccccc1` (centres unmarked), for which the “hERG current change (%, negative = inhibition) at 1uM” value was found to be 8.57%. Turning to `COc1ccc(N(CC(=O)N/N=C/c2ccccc2F)S(=O)(=O)c2ccccc2)cc1`, the “hERG current change (%, negative = inhibition) at 1uM” value is -0.884%. Take `Cc1nnsc1C(=O)N(Cc1ccccc1)C(C)C`: the “hERG current change (%, negative = inhibition) at 1uM” value was found to be 7.64%. Take `N/C(=N\OC(=O)c1ccc2c(c1)OCO2)c1ccc([N+](=O)[O-])cc1`: the “hERG current change (%, negative = inhibition) at 1uM” value was 3.69%. The figure for `CCOc1ccc(N2CC(C(=O)OCC(=O)c3ccc(OC)cc3)CC2=O)cc1` (centres unmarked) is -12.8%; for `O=C(CNC(=O)c1cc(Cl)cc([N+](=O)[O-])c1)OCC(=O)N1CCCCC1` it is 16%; for `CN(C)CC1CCCCC1OC(=O)/C=C/c1ccccc1.Cl` (centres unmarked) it is -0.779%. Take `CCOc1cc(NC(=O)c2ccccc2C(=O)O)c(OCC)cc1NC(=O)c1ccccc1F`: the “hERG current change (%, negative = inhibition) at 1uM” value is reported as 3.52%. For `Cc1nnc(Sc2nc3c(c(=O)n(C)c(=O)n3C)n2Cc2ccc(Cl)cc2)s1`, the “hERG current change (%, negative = inhibition) at 1uM” value is reported as -8.06%.

Turning to `Cc1nc2ccc(S(=O)(=O)NCC(=O)N3CCC(C)CC3)cc2s1`, the “hERG current change (%, negative = inhibition) at 1uM” value came out at 16.4%. Next, `COc1ccc(NS(=O)(=O)c2cccc(C(=O)NNC(=O)c3ccccc3O)c2)cc1`: 6.98%; `Cc1cccc(NC(=O)CSc2nnc(CN3CCOCC3)n2C)c1C`: 11.7%. The figure for `COc1ccccc1CC(=O)Nc1ncc(C)s1` is 9.61%; for `CCNC(=O)CON=C1c2ccccc2-c2ccccc21` it is 9.97%; for `Cc1nc(COC(=O)c2ccc(CO)cc2)cs1` it is 10.1%.

Regarding `C/C(N)=C(/C#N)C(=O)CSc1nc2ccccc2c(=O)n1-c1ccccc1C`, the “hERG current change (%, negative = inhibition) at 1uM” value came to 12.4%. The figure for `CCOc1ccc(OCC)c(S(=O)(=O)NCc2ccc3c(c2)OCO3)c1` is 3.22%; for `O=C(COC(=O)CNS(=O)(=O)c1ccc2ccccc2c1)Nc1ccc2c(c1)OCO2` it is 11.4%.

Regarding `CCOC(=O)C1=C(C)N(CCCCCC(=O)O)C(=O)NC1c1cccc([N+](=O)[O-])c1` (centres unmarked), the “hERG current change (%, negative = inhibition) at 1uM” value worked out at 16.6%.

With `CC(=Nc1cc(C(=O)c2ccccc2)ccc1N)C1=C(O)CC(C)(C)CC1=O`, the “hERG current change (%, negative = inhibition) at 1uM” value came to 10.8%. For `O=C(/C=C/Nc1ccc(F)cc1Br)c1ccccc1`, the “hERG current change (%, negative = inhibition) at 1uM” value was determined as 9.82%. The figure for `COc1ccccc1-n1c(SCC(=O)NCc2ccc3c(c2)OCO3)nc2cc([N+](=O)[O-])ccc21` is 3.55%; for `COc1ccc(C(=O)C2CCN(CC(=O)Nc3ccccc3F)CC2)cc1` it is 2.46%; for `O=C(CNC(=O)c1ccccc1F)N/N=C/c1ccco1` it is 18%.

As for `COc1ccc(NC(=O)CN(C)C(=O)CSc2ccc(Br)cc2)cc1`, the “hERG current change (%, negative = inhibition) at 1uM” value is 5.01%. Regarding `Oc1ccccc1/C=N/Nc1ncc(Br)cn1`, the “hERG current change (%, negative = inhibition) at 1uM” value was 10.2%. `O=C(CSc1nc2scc(-c3ccco3)c2c(=O)n1-c1ccccc1)N1CCOCC1`: the “hERG current change (%, negative = inhibition) at 1uM” value is given as -2.25%. Next, `CC(C)C(NS(=O)(=O)c1ccc2c(c1)oc(=O)n2C)C(=O)N1CCN(C2CCCCC2)CC1` (centres unmarked): 12.4%. Next, `Cc1cc(C)n(-c2ccc(S(N)(=O)=O)cc2[N+](=O)[O-])n1`: 5.42%; `Cc1noc(NS(=O)(=O)c2ccc(NC(=O)CCCOc3ccc(Cl)cc3Cl)cc2)c1C`: 12.4%; `O=C(CN1C(=O)NC2(CCCC2)C1=O)NNC(=O)c1ccc(Br)cc1`: 4.51%. `N#Cc1cc(NCC2CCCO2)c([N+](=O)[O-])cc1C#N` (centres unmarked): the “hERG current change (%, negative = inhibition) at 1uM” value came to 5.58%. In the case of `Clc1ccsc1-c1csc(-c2cccnc2)n1`, the “hERG current change (%, negative = inhibition) at 1uM” value was found to be 16.4%. Turning to `Cc1ccnc(-n2c(C)cc(C=C3C(=O)N(C)C(=S)N(C)C3=O)c2C)c1`, the “hERG current change (%, negative = inhibition) at 1uM” value is 2.58%. Next, `COc1ccc(C(=O)Cn2cnc3ccccc3c2=O)c(OC)c1`: 6.19%; `CCCN(CCC)S(=O)(=O)c1ccc(C(=O)Nc2nnc(CSC)o2)cc1`: 7.65%. Take `CCOc1ccc(C(=O)NC(=S)Nc2cccc(NC(=O)c3ccco3)c2)cc1[N+](=O)[O-]`: the “hERG current change (%, negative = inhibition) at 1uM” value came to 10.3%. Next, `CC1CC(C)CN(CCCNC(=O)CCNC(=O)Cn2cnc3ccccc3c2=O)C1` (centres unmarked): 17.7%. `Cc1ncsc1CCOC(=O)c1cccnc1.Cl`: the “hERG current change (%, negative = inhibition) at 1uM” value was 15.6%. Next, `CN1CCN(C(=O)CCN2C(=O)/C(=C/c3ccccc3Cl)SC2=S)CC1`: 5.36%; `O=S(=O)(NCC(c1ccco1)N1CCN(c2ccccc2)CC1)c1ccc(F)cc1` (centres unmarked): 5.95%. The figure for `O=C(NCCc1nnc2ccc(NCc3cccnc3)nn12)c1ccccc1F` is 9.78%; for `CC(C)N(Cc1nc2ccccc2c(=O)[nH]1)C(=O)c1ccc(NC(=O)CSc2nnnn2C)cc1` it is 10.5%.
